# Measurements: paper PMC4336329 (PLoS ONE, 2015)
# The whole screen tested about 310,000 compounds, of which about 14,000 (4.5%) showed an effect of 50% or more. The effect is printed as a negative number. This is one part of the list.
# Biological target: human ether-à-go-go-related gene (hERG) potassium channel (human, UniProt Q12809)
# Assay: primary screen, population patch clamp on CHO cells stably expressing hERG
# 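Note: peak tail current of the secondary pulse compared with the same well before compound.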
# Sequence of human ether-à-go-go-related gene (hERG) potassium channel (Q12809 whole entry, looked up): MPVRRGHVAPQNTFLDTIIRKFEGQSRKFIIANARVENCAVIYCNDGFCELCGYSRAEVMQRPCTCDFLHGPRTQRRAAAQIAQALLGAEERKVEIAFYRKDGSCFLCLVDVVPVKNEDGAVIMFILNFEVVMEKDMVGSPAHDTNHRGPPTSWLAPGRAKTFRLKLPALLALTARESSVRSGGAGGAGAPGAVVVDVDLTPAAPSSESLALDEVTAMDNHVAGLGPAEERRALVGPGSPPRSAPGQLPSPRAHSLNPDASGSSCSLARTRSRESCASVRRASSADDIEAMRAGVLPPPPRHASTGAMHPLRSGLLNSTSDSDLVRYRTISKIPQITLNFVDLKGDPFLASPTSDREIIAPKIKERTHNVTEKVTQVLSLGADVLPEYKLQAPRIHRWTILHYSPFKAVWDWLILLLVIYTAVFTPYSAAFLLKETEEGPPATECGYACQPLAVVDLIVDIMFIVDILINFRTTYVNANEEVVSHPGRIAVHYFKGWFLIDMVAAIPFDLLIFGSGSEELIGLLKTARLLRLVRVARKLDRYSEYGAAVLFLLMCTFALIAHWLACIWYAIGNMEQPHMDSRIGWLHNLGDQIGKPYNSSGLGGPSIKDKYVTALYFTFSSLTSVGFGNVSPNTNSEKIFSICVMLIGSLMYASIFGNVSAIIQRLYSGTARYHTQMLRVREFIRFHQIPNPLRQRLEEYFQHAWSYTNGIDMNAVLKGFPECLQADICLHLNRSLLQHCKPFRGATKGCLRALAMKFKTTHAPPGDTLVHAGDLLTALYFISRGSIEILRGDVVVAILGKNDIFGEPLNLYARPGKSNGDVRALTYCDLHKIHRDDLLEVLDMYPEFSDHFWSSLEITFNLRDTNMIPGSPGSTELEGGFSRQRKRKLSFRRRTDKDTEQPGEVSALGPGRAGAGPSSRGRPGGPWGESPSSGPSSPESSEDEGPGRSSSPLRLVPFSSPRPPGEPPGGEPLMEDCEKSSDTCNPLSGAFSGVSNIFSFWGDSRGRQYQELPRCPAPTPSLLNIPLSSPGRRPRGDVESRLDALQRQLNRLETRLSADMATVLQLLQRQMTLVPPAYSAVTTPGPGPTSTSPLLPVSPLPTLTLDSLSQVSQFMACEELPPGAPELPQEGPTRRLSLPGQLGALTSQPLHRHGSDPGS
row,SMILES,"hERG current change (%, negative = inhibition) at 10uM"
1,Cc1ccc(NC(=O)Cn2nnc3ccccc3c2=O)cc1C,16.1%
2,COc1ccc(OC)c(CN(CCCN2CCOCC2)S(=O)(=O)c2ccc(NC(C)=O)cc2)c1,-6.36%
3,Cc1nc(N2CCN(c3ccc(Cl)cc3)CC2)[nH]c(=O)c1C,16.3%
4,CCCn1c(SCC(=O)Nc2ccccc2OC)nnc1-c1ccco1,-68.5%
5,Cc1ccc(C2C=C(c3ccccc3OC(F)F)Nc3ncnn32)cc1 (stereo not shown),-7.34%
6,COc1ccccc1C(=O)Nc1sc2c(c1C(=O)NCc1ccco1)CCCC2,7.82%
7,CCCCOC(=O)CSc1nc2ccccc2o1,5.27%
8,COc1ccc(S(=O)(=O)N2CC(=O)Nc3ccccc32)cc1,-6.04%
9,Cn1c(=O)n(C)c2cc(S(=O)(=O)O)ccc21,4.49%
10,Cn1c(SCC(=O)NCC2CCCO2)nnc1-c1ccc(S(=O)(=O)N2CCCC2)cc1 (stereo not shown),11.4%
11,N/C(=N\OC(=O)COc1ccc(Br)cc1Cl)c1ccccn1,-2.1%
12,Cc1ccc(/C=N/NC(=O)c2ccoc2C)s1,-1.92%
13,CC(C)[C@H](NC(=O)C1CCN(S(=O)(=O)c2ccc(F)cc2)CC1)C(=O)NCc1ccco1,4.09%
14,CC(C)(Cc1cccc(CC(C)(C)C(=O)O)c1)C(=O)O,13.1%
15,CCOC(=O)c1c(C)[nH]c(C)c1C(=O)COC(=O)CNC(=O)c1ccc(OCC)cc1,-2.83%
16,CCNc1nc(NC(C)C)nc(OCCOC(=O)Nc2ccccc2)n1,-4.72%
17,O=C(COC(=O)c1ccco1)Nc1ccc(Br)cc1,-22.8%
18,CCOC(=O)C1CCN(C(=O)CCC2CCCC2)CC1,15.8%
19,CCN1CCN(Cc2nc3c(c(=O)[nH]c(=O)n3C)n2Cc2ccccc2Cl)CC1,14.8%
20,CCCNC(=O)C(CC)NC(=O)c1ccc(C#N)cc1 (stereo not shown),6.89%
21,Cc1ccc(CCNC(=O)C2CCC(=O)N2Cc2cccnc2)cc1 (stereo not shown),12.2%
22,Cn1c(=O)c(C(N)=S)cn(-c2ccccc2)c1=O,7.08%

row,SMILES,"hERG current change (%, negative = inhibition) at 10uM"
1,O=C(CCN1C(=O)C2CC=C(Cl)CC2C1=O)Nc1ccccc1O (stereo not shown),3.32%
2,Cc1ccc2[nH]c(=O)c(C(c3nnnn3C3CCCC3)N3CCCc4ccccc43)cc2c1 (stereo not shown),-6.05%
3,Cc1oc(=O)c(NC(=O)c2ccc(Cl)cc2)cc1C(=O)c1ccccc1,22.6%
4,CCCCCc1c(C)nc(NCc2ccccc2)[nH]c1=O,-4.44%
5,CC(=O)NCCN=C(C)c1sc2ccccc2c1O,9.46%
6,Cc1ccc(-c2cc(Cc3ccccc3)c(=O)[nH]n2)cc1,11.5%
7,Cc1cc(C(F)(F)F)cc(NNC(=O)NC(=O)c2ccc(Cl)cc2)n1,14.1%
8,S=c1[nH]c2cc(-c3ccccc3)ccc2o1,19.3%
9,COC(=O)[C@@]12CCCCN1[C@H](c1ccc(-c3ccc(OC)cc3)cc1)[C@@H]1C(=O)N(C)C(=O)[C@@H]12.O=C(O)C(F)(F)F,-8.63%
10,CCNC(=S)Nc1ccccc1-c1ccccc1,13.1%
11,CCC(=O)c1ccc(OCC(=O)OCC(=O)Nc2cccc(S(=O)(=O)N3CCCC3)c2)cc1,1.57%
12,O=C(c1ccc(CS(=O)c2ccccc2Cl)o1)N1CCCCCC1 (stereo not shown),14.5%
13,Cc1cccc(NC(=O)C2CCCN(S(=O)(=O)c3cccc4nsnc34)C2)c1 (stereo not shown),-8.94%
14,Cc1cc(C)c(C)c(S(=O)(=O)N[C@@H](C)C(=O)OC(C)C(=O)NC(N)=O)c1C (stereo partly shown),-16.9%
15,Cc1ccc(C[n+]2c(-c3ccc(C)cc3)cc(-c3ccc(C)cc3)cc2-c2ccc(C)cc2)cc1.[O-][Cl+3]([O-])([O-])[O-],-75.6%
16,S=c1[nH]nc(CSc2nc3ccccc3s2)n1C1CCCCC1,6.81%
17,CCC(C)N(C(=O)CSc1nnc(C)n1C)C1CCS(=O)(=O)C1 (stereo not shown),3.01%
18,Cc1cc(C(=O)COC(=O)c2ccc(N)c([N+](=O)[O-])c2)c(C)n1Cc1ccc2c(c1)OCO2,-0.0821%
19,COc1ccc(C2(C(=O)NC3CCCCC3)CCOCC2)cc1OC,6.29%
20,Cc1cc(OCCN2CCCC2)cc(C(C)C)c1.O=C(O)C(=O)O,-0.795%
21,CC(C)(C)CC(=O)O/N=C(\N)c1ccccn1,11.6%
22,O=C(CCN1CCN(Cc2ccccc2)CC1)Nc1ccccc1Cl,-46.2%

row,SMILES,"hERG current change (%, negative = inhibition) at 10uM"
1,Cc1cc(C2=NNC(=Nc3ccc(S(=O)(=O)N4CCOCC4)cc3)SC2)c(C)n1CC1CCCO1 (stereo not shown),14.1%
2,Cc1cccc(NC(=O)c2sc(C)nc2C)c1,-15.6%
3,CC(C)(C)OC(=O)N1CCC(C(=O)NNC(=O)c2ccc(Cl)cc2Cl)CC1,8.15%
4,CC(=O)Nc1cccc(NC(=O)Nc2cccc3ccccc23)c1,17.6%
5,O=C(NCCn1cccn1)c1ccc(OC2CCN(C(=O)C3CC3)CC2)cc1,12%
6,O=C(O)/C=C/c1cn(-c2ncc(C(F)(F)F)cc2Cl)c2ccccc12,16.4%
7,COc1ccc(NC(=O)COC(=O)C2CCN(S(=O)(=O)c3cccs3)CC2)cc1,-26.8%
8,CC(NC(=O)COC(=O)[C@@H]1CCCN1S(=O)(=O)c1ccccc1F)C12CC3CC(CC(C3)C1)C2 (stereo partly shown),-10.7%
9,CCCCCCCCOC(=O)/C=C/c1c(C)[nH]c(=O)[nH]c1=O,10.7%
10,CN(C)N=Nc1ccc(S(=O)(=O)N2CCSC2C(=O)O)cc1 (stereo not shown),2.21%
11,S=c1[nH]nc(-c2ccc3ccccc3n2)o1,17.2%
12,COc1ccc(N2CCOCC2)c(NC(=O)c2cccnc2)c1,12.8%
13,O=C(COC(=O)c1cccc(S(=O)(=O)N2CCOCC2)c1)Nc1ccc2c(c1)OCO2,-1.52%
14,COc1ccc(C(=O)NC2CCC(O)CC2)cc1S(=O)(=O)NCc1ccc(Cl)cc1 (stereo not shown),-6.07%
15,N#CCc1ccc(OC(=O)c2cccnc2)cc1,6.71%
16,Cn1c(=O)oc2cc(S(=O)(=O)NC3CCN(Cc4ccccc4)CC3)ccc21,-36.4%
17,COc1cc(/C=N\NC(=O)OC(C)(C)C)ccc1OC(=O)c1ccco1,36.3%
18,CC1C=CCC2C(=O)N(c3cccc(C(=O)Nc4ccc(Br)cc4)c3)C(=O)C12 (stereo not shown),-15%
19,COc1ccccc1NS(=O)(=O)c1ccc(C)c(C(=O)NC2=NCCS2)c1,-6.94%
20,CN(CC(=O)NC1CCCc2ccccc21)C1CCCCC1 (stereo not shown),14.1%
21,Cc1ccc2cc(C(c3nnnn3CC3CCCO3)N3CCc4ccccc4C3)c(=O)[nH]c2c1 (stereo not shown),-42.1%
22,COc1ccc(-c2nn3cnnc3s2)cc1OC,-0.709%

row,SMILES,"hERG current change (%, negative = inhibition) at 10uM"
1,O=C(NCc1ccc2c(c1)OCO2)C(=S)N1CCOCC1,18.6%
2,COc1cccc(-c2nnc(NC(=O)Cc3cccs3)s2)c1,10.3%
3,COC(=O)C(CSCc1ccccc1)NC(=O)CSc1nc(C)cc(=O)[nH]1 (stereo not shown),18.4%
4,COc1ccc([N+](=O)[O-])cc1NC(=O)CSc1nccc(C)n1,-2.9%
5,O=C1C=C(Nc2ccc(O)cc2)C(=O)c2ccccc21,4.35%
6,CCOC(=O)CSc1nc2ccsc2c(=O)[nH]1,26.3%
7,COCCN(C(=O)c1cc(-c2ccncc2)nc2ccccc12)c1c(N)n(CC(C)C)c(=O)[nH]c1=O,3.66%
8,COCCn1c(SCC(=O)N2CCC(C)CC2)nc2c(c1=O)SCC2,-40.6%
9,COc1ccc(/C=C/C(=O)Nc2ccc(C34CC5CC(CC(O)(C5)C3)C4)cc2)cc1OC,16.2%
10,COc1ccc([C@H]2CC(=O)C=C(c3ccc(-c4ccccc4)c(F)c3)C2)cc1OC,24.4%
11,O=C(COC(=O)/C=C/c1ccccc1)Nc1nnc(-c2ccccc2)o1,1.9%
12,Cc1ccc(C(=O)Cn2ncsc2=N)cc1,-12.5%
13,CC1(C)CC(=O)C(C2=NC3(CCCCCC3)Cc3ccccc32)=C(O)C1,-12.7%
14,Cc1c(NC(=O)C(C)Oc2ncnc3ccccc23)c(=O)n(-c2ccccc2)n1C (stereo not shown),-3.9%
15,CC(C)(C)C(=O)Nc1nnc(SCC(=O)NCc2cccs2)s1,16.3%
16,CC(=O)c1sc(N/N=C\c2ccc(C)cc2)nc1C,-14.5%
17,Nn1c(SCc2cc([N+](=O)[O-])cc3c2OCOC3)nnc1-c1ccccn1,-6.82%
18,Cc1cccc(OCC(=O)Nc2nnn(C)n2)c1C,14.1%
19,O=C(Nc1ccc(Cn2nnc3ccccc32)cc1)c1ccco1,-1.59%
20,COc1ccc(Cl)cc1N(CC(=O)NC(C)(C)C)S(=O)(=O)c1ccc(C)c([N+](=O)[O-])c1,0.912%
21,O=C1CCC(C(=O)NCc2cccnc2)N1 (stereo not shown),18.8%
22,N#C/C(=C\c1ccc(Sc2ccc(Cl)cc2)o1)c1nc2ccccc2[nH]1,18.1%
